Results on 11 compounds are retold here after the supplement of paper PMC4604168 (melanoma cell lines).

The list shows a part of the results. Single values are uncertain, as repeats are few or missing.
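Note: cells treated in 1,536-well plates, then fixed and DAPI-stained, with nuclei counted from automated high-throughput microscope images.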

The test deals with COLO800. The test is described as follows: cell count relative to DMSO control; melanoma cells; higher = more viable cells. As to conditions: library dose: standard library concentration; 72 h.
`CC(=O)O[C@@]12CO[C@@H]1C[C@H](O)[C@@]1(C)C(=O)[C@H](O)C3=C(C)[C@@H](OC(=O)[C@H](O)[C@@H](NC(=O)OC(C)(C)C)c4ccccc4)C[C@@](O)([C@@H](OC(=O)c4ccccc4)[C@H]21)C3(C)C` [Docetaxel] + CC1(C)NC(=O)N(c2ccc([N+](=O)[O-])c(C(F)(F)F)c2)C1=O [nilutamide] (first compound 0.0005 µM, partner dose 5 µM) showed a cell count of 21.5%.

Regarding `CC(=O)c1c(C)c2cnc(Nc3ccc(N4CCNCC4)cn3)nc2n(C2CCCC2)c1=O` [palbociclib] + NCC(=O)Nc1ccc(-n2nc(C(F)(F)F)cc2-c2ccc3c(ccc4ccccc43)c2)cc1 [OSU03012] (first compound 0.2 µM, partner dose 5 µM), the cell count was determined as 66.5%. `Nc1nc(F)nc2c1ncn2[C@@H]1O[C@H](CO)[C@@H](O)[C@@H]1O` [fludarabine] + Nc1cccc2c1CN(C1CCC(=O)NC1=O)C2=O [lenalidomide] (first compound 1 µM, partner dose 5 µM): the cell count was 56.6%. Compound `CC(=O)O[C@@]12CO[C@@H]1C[C@H](O)[C@@]1(C)C(=O)[C@H](O)C3=C(C)[C@@H](OC(=O)[C@H](O)[C@@H](NC(=O)OC(C)(C)C)c4ccccc4)C[C@@](O)([C@@H](OC(=O)c4ccccc4)[C@H]21)C3(C)C` [Docetaxel] + Oc1cc(-c2nc(-c3ccccc3)[nH]c2-c2ccncc2)ccc1Cl [L779450] (first compound 0.0005 µM, partner dose 1 µM) displayed a cell count of 20.7%. For `Nc1ncn([C@H]2C[C@H](O)[C@@H](CO)O2)c(=O)n1` [decitabine] + CC1(C)NC(=O)N(c2ccc([N+](=O)[O-])c(C(F)(F)F)c2)C1=O [nilutamide] (first compound 0.5 µM, partner dose 5 µM) the value was 57.6%; for `CC(=O)O[C@@]12CO[C@@H]1C[C@H](O)[C@@]1(C)C(=O)[C@H](O)C3=C(C)[C@@H](OC(=O)[C@H](O)[C@@H](NC(=O)OC(C)(C)C)c4ccccc4)C[C@@](O)([C@@H](OC(=O)c4ccccc4)[C@H]21)C3(C)C` [Docetaxel] + CN(NC(=O)CC(=O)NN(C)C(=S)c1ccccc1)C(=S)c1ccccc1 [STA4783] (first compound 0.0005 µM, partner dose 0.03 µM), 25%.

`CC(=O)O[C@@]12CO[C@@H]1C[C@H](O)[C@@]1(C)C(=O)[C@H](O)C3=C(C)[C@@H](OC(=O)[C@H](O)[C@@H](NC(=O)OC(C)(C)C)c4ccccc4)C[C@@](O)([C@@H](OC(=O)c4ccccc4)[C@H]21)C3(C)C` [Docetaxel] + O=C(O)[C@@H]1[O][Sb](=[O])([O][Sb]2(=[O])[O][C@H]([C@H](O)CO)[C@H](O)[C@H](C(=O)O)[O]2)[O][C@H]([C@H](O)CO)[C@@H]1O [stibogluconate] (first compound 0.0005 µM, partner dose 10 µM) displayed a cell count of 42.3%. On to `Nc1ccn([C@@H]2O[C@H](CO)[C@@H](O)C2(F)F)c(=O)n1` [gemcitabine] + O=C(O)C(=O)Nc1sc2c(c1C(=O)O)CCNC2 [TCS401] (first compound 0.002 µM, partner dose 8.33333 µM), for which the cell count is 43.5%.

With `CC(=O)O[C@@]12CO[C@@H]1C[C@H](O)[C@@]1(C)C(=O)[C@H](O)C3=C(C)[C@@H](OC(=O)[C@H](O)[C@@H](NC(=O)OC(C)(C)C)c4ccccc4)C[C@@](O)([C@@H](OC(=O)c4ccccc4)[C@H]21)C3(C)C` [Docetaxel] + C[C@]1(c2nc3c(C(N)=O)cccc3[nH]2)CCCN1 [Veliparib] (first compound 0.0005 µM, partner dose 7 µM), the cell count came to 20.8%. In the case of `CC(=O)c1c(C)c2cnc(Nc3ccc(N4CCNCC4)cn3)nc2n(C2CCCC2)c1=O` [palbociclib] + N#Cc1c(O)c2c(-c3ccc(-c4ccccc4O)cc3)csc2[nH]c1=O [A769662] (first compound 0.2 µM, partner dose 10 µM), the cell count is 99.4%. For `Nc1ccn([C@@H]2O[C@H](CO)[C@@H](O)C2(F)F)c(=O)n1` [gemcitabine] + C=CCNC1=C2C[C@@H](C)C[C@H](OC)[C@H](O)[C@@H](C)/C=C(\C)[C@H](OC(N)=O)[C@@H](OC)/C=C\C=C(/C)C(=O)NC(=CC1=O)C2=O [Tanespimycin] (first compound 0.002 µM, partner dose 0.01 µM) the value was 44.8%.
